{"source": "PubChem BioAssay AID686978", "about": "(National Center for Advancing Translational Sciences (NCATS), 2013)", "note": "Values joined by “and” are separate entries in the source; they are usually repeats but may differ in a detail not shown here. Equal values may be shown once. Among all 420,000 compounds or so, about 64,000 (15%) were called active. This list was built around the results that the source calls inconclusive (neither active nor inactive); the mix of calls is not that of the screen. Calls come from the whole dose curve; as a rule, active = well fitted inhibition curve with a large enough effect; inconclusive = small, poorly fitted or top-dose-only effect; inactive = flat fitted curve, though single readings scatter. Where the call is inconclusive, the potency comes from a doubtful curve fit. % is set by controls: 0 for no effect and ±100 for the full control effect; potency is the fitted concentration of half-maximal effect; tags give direction and shape of the fitted curve.", "data": [{"experiment": "qHTS for Inhibitors of human tyrosyl-DNA phosphodiesterase 1 (TDP1): qHTS in cells in absence of CPT; note: nearly all actives have a fitted effect of over 55% in size", "conditions": "DT40 Tdp1-/- hTDP1 cells, no CPT, ATP luminescence, 48 h; activity change, negative = growth inhibition: at 46.2 µM (top of the series) unless noted", "method_in_brief": "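Cells were dispensed at 400 per well, compounds added by pin tool, plates incubated ≥48 hr at 37 °C, then CellTiter-Glo added for 30 min at room temperature before luminescence reading. Line: DT40 Tdp1-/- complemented with hTDP1; camptothecin omitted.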", "values": [{"smiles": "Cc1ccccc1C(=O)NCc1nc(-c2ccc(Cl)cc2)no1", "Potency": "inconclusive: 18.4 µM [inhibitor, single point]"}, {"smiles": "Cc1ccc(C)c(Cn2c(=O)cc(C(F)(F)F)c3c(C)nn(C)c32)c1", "activity change, negative = growth inhibition": "inactive: -21.8%"}, {"smiles": "Cc1ccc(CN2C[C@H](Sc3ccccn3)C[C@H]2C(=O)Nc2ccc3sc(C)nc3c2)c(C)c1", "activity change, negative = growth inhibition": "inactive: -16.1%"}, {"smiles": "CC(=O)Nc1cc(-c2ccc(Cl)cc2)[nH]n1", "activity change, negative = growth inhibition": "inconclusive: -31.9% [inhibitor]"}, {"smiles": "CCN(CC)C(=O)CC(c1ccccc1)c1ccco1", "note": "(stereo not given)", "activity change, negative = growth inhibition": "inactive: -20.9%"}, {"smiles": "COc1ccc(CC(=O)Nc2cc(Cl)ccc2N2CCCC2)cc1", "Potency": "inconclusive: 20.6 µM [inhibitor, single point]"}, {"smiles": "CCNC(=O)C1CCCN(C(=O)c2cccc(OC(F)(F)F)c2)CC1", "note": "(stereo not given)", "Potency": "inconclusive: 16.4 µM [inhibitor, single point]"}, {"smiles": "O=C(Nc1cccc(Oc2ccccc2)c1)c1ccc(-n2cncn2)c2ccoc12", "Potency": "inconclusive: 25.9 µM [inhibitor, single point]"}, {"smiles": "CSCCC(NC(=O)c1ccccc1Cl)C(=O)Nc1ccncc1", "note": "(stereo not given)", "activity change, negative = growth inhibition": "inactive: -22.9%"}, {"smiles": "Cc1ccc(NS(=O)(=O)c2cc3c4c(cccc4c2)C(=O)NC3=O)cc1", "Potency": "active: 9.2 µM"}, {"smiles": "CCOC(=O)c1c(NC(=O)CN2CCN(C(=O)c3ccco3)CC2)sc(C(N)=O)c1C", "Potency": "active: 18.4 µM"}, {"smiles": "O=c1c2ccc([N+](=O)[O-])cc2ncn1CCOc1cccc(Br)c1", "Potency": "active: 10.3 µM"}, {"smiles": "Cc1ccc(N2CCN(S(=O)(=O)N3CCCCC3)CC2)c(C)c1", "Potency": "inconclusive: 29.1 µM [inhibitor, single point]"}, {"smiles": "CC(C)c1ccc(CN2CCC(C)(Oc3ccc(Cl)cc3)C2)cc1", "note": "(stereo not given)", "Potency": "inconclusive: 18.4 µM [inhibitor, single point]"}, {"smiles": "C[C@]12C(=O)N(c3cccc(Cl)c3)C(=O)N1[C@@H]1c3ccccc3OC[C@@H]1[C@H]2c1ccccc1", "Potency": "active: 11.6 µM"}, {"smiles": "COc1ccc(C(=O)Nc2ccc(Cl)c(S(=O)(=O)Nc3ccccc3OC)c2)cc1", "Potency": "inconclusive: 25.9 µM [inhibitor, single point]"}, {"smiles": "COc1ccc(Cl)cc1NC(=O)CCn1c(=O)c2cccn2c2ccccc21", "Potency": "inconclusive: 29.1 µM [inhibitor, single point]"}, {"smiles": "CC(C)(C)OC(=O)[C@H](NC(=O)OCc1ccccc1)c1ccccc1", "Potency": "inconclusive: 29.1 µM [inhibitor, single point]"}, {"smiles": "O=C(NCc1ccccc1CN1CCOCC1)c1ccc(-n2cccn2)cc1", "Potency": "inconclusive: 16.4 µM [inhibitor, single point]"}, {"smiles": "CCCN1CCN(C(=O)C2CCN(S(=O)(=O)c3ccc4c(c3)NC(=O)C(C)S4)CC2)CC1", "note": "(stereo not given)", "activity change, negative = growth inhibition": "inconclusive: -31% [inhibitor]"}, {"smiles": "Cc1cc(OCC(=O)OCC(=O)N(Cc2ccccc2)C(C)(C)C)ccc1Cl", "activity change, negative = growth inhibition": "inactive: -11%"}, {"smiles": "CC(NCC(=O)Nc1ccccc1C(=O)NC1CC1)c1ccc(F)cc1F", "note": "(stereo not given)", "activity change, negative = growth inhibition": "inactive: -10%"}, {"smiles": "COC(=O)CN1C(=O)[C@H]2[C@@H](/C=C/c3ccccc3)N3C(=O)CN(Cc4ccc(-c5ccccc5)cc4)C(=O)[C@@]3(C)[C@H]2C1=O", "Potency": "inconclusive: 29.1 µM [inhibitor, single point]"}, {"smiles": "O=C1NC(C2CC3C=CC2C3)Nc2ccccc21", "note": "(stereo not given)", "Potency": "inconclusive: 29.1 µM [inhibitor, single point]"}, {"smiles": "COc1ccc(-c2cc(C(F)F)n3ncc(C(=O)N4CCCCC4)c3n2)cc1", "Potency": "inconclusive: 18.4 µM [inhibitor, single point]"}, {"smiles": "COc1cc(C(=S)N2CCOCC2)ccc1OS(=O)(=O)c1ccccc1[N+](=O)[O-]", "Potency": "inconclusive: 29.1 µM [inhibitor, single point]"}, {"smiles": "COc1cccc(C2c3[nH]c4ccccc4c3C[C@H]3C(=O)N(C4CCN(Cc5ccccc5)CC4)CC(=O)N23)c1", "note": "(stereo not given in full)", "Potency": "inconclusive: 29.1 µM [inhibitor, single point]"}, {"smiles": "CC(C)CN(CCNC(=O)CN1C(=O)COc2ccc(S(=O)(=O)N3CCC(C)CC3)cc21)CC(C)C", "Potency": "inconclusive: 29.1 µM [inhibitor, single point]"}, {"smiles": "CCc1ccccc1N1CC(c2nc3ccccc3n2Cc2cccc(C)c2)CC1=O", "note": "(stereo not given)", "Potency": "active: 13 µM"}, {"smiles": "COc1cccc(CNC(=O)Cn2ccc3cc(S(=O)(=O)N4CCCC4)ccc32)c1", "Potency": "inconclusive: 10.3 µM [inhibitor, partial curve] and inconclusive: 14.6 µM [inhibitor, partial curve]"}, {"smiles": "O=C(CSc1n[nH]c(=O)n1C1CC1)c1ccc2c(c1)OCCO2", "Potency": "inconclusive: 25.9 µM [inhibitor, single point]"}, {"smiles": "Cc1ccc(NC(=O)c2ncn(CCCNCC3CCCCC3)n2)cc1C", "Potency": "active: 20.6 µM"}, {"smiles": "Cc1ccccc1-c1nccc(NCc2cccs2)n1", "Potency": "inconclusive: 29.1 µM [inhibitor, single point]"}, {"smiles": "CCOc1ccc(/C(O)=C2/C(=O)C(=O)N(CCCN3CCOCC3)C2c2ccc(F)cc2)cc1C", "note": "(stereo not given)", "activity change, negative = growth inhibition": "inactive: 17.5%"}, {"smiles": "COc1ccc(NC(=O)C/C(C)=N/NC(=O)COc2ccc(OC)cc2)cc1", "activity change, negative = growth inhibition": "inactive: 13.3%"}, {"smiles": "COc1cc(C2CC(=O)Oc3cc(O)ccc32)cc(OC)c1OC", "note": "(stereo not given)", "activity change, negative = growth inhibition": "inactive: -2.63%"}, {"smiles": "Cc1sc2nc(CSCC(=O)Nc3ccccc3C#N)[nH]c(=O)c2c1C", "Potency": "active: 16.4 µM"}, {"smiles": "Fc1ccccc1COc1ccccc1/C=N/Nc1nc(N2CCCC2)nc(N2CCCC2)n1", "Potency": "active: 20.6 µM"}, {"smiles": "COc1ccc(C)cc1S(=O)(=O)NCC(c1ccc2c(c1)OCO2)N1CCN(C)CC1", "note": "(stereo not given)", "activity change, negative = growth inhibition": "inactive: -29.9%"}, {"smiles": "CCCNC(=O)C1(S(=O)(=O)c2ccccc2)CC=CC1", "activity change, negative = growth inhibition": "inactive: -9.81%"}, {"smiles": "COc1ccc(CNc2ccc(C)c(C)c2)c(OC)c1OC", "Potency": "inconclusive: 20.6 µM [inhibitor, single point]"}, {"smiles": "Cc1cnc(Nc2nc3ccccc3o2)nc1C(=O)Nc1cccc(C(F)(F)F)c1", "Potency": "active: 20.6 µM"}, {"smiles": "COc1cc(NC(=O)Cn2c(=O)n(C(C)C)c(=O)c3oc4ccccc4c32)cc(OC)c1", "Potency": "inconclusive: 16.4 µM [inhibitor, partial curve, poor fit]"}, {"smiles": "CC1CCc2nn(CC(=O)Nc3cccc(C(F)(F)F)c3)c(=O)cc2C1", "note": "(stereo not given)", "Potency": "inconclusive: 29.1 µM [inhibitor, single point]"}, {"smiles": "COc1ccc(-c2nc(CS(=O)CC(=O)NC3CCCC3)c(C)o2)cc1", "note": "(stereo not given)", "activity change, negative = growth inhibition": "inactive: -8.45%"}, {"smiles": "COc1nccnc1NS(=O)(=O)c1ccc(NC(=S)NC(=O)c2ccccc2)cc1", "Potency": "inconclusive: 29.1 µM [inhibitor, single point]"}, {"smiles": "C/C(=N/NC(=O)c1ccco1)c1cccc(NC(=O)c2ccc(C)o2)c1", "activity change, negative = growth inhibition": "inactive: -7.08%"}, {"smiles": "C=C(C)C1CC=C(C)/C(=N\\NC(=O)CNc2cccc3ccccc23)C1", "note": "(stereo not given)", "activity change, negative = growth inhibition": "inactive: -24.1%"}, {"smiles": "COc1cc(OC)c(NS(=O)(=O)c2cc(C(=O)OC(C)C(=O)NC3CC3)c(Cl)cc2Cl)cc1Cl", "note": "(stereo not given)", "Potency": "active: 23.1 µM"}, {"smiles": "O=C(NCc1ccccc1)C1CCC(CNS(=O)(=O)c2ccc(Br)s2)CC1", "note": "(stereo not given)", "activity change, negative = growth inhibition": "inactive: -21.7%"}, {"smiles": "CC(=O)N1CCc2cc(S(=O)(=O)NC(C(=O)Nc3ccc4c(c3)OCCO4)C(C)C)ccc21", "note": "(stereo not given)", "activity change, negative = growth inhibition": "inactive: -11.1%"}, {"smiles": "COc1ccc(Cl)c(N2CCN(CCCNC(=O)Nc3ccc(C)cc3)CC2)c1", "Potency": "inconclusive: 29.1 µM [inhibitor, single point]"}, {"smiles": "CC(=O)N(CCCc1ccc(C(C)(C)C)cc1)CCCN(C)C", "Potency": "inconclusive: 29.1 µM [inhibitor, single point]"}, {"smiles": "Cc1ccc2ccccc2c1C(O)c1ncc(-c2ccccc2)[nH]1", "note": "(stereo not given)", "Potency": "inconclusive: 29.1 µM [inhibitor, single point]"}, {"smiles": "CSc1ccc(Cn2c(C)c(C(=O)NCc3ccc(F)cc3)sc2=O)cc1", "Potency": "inconclusive: 16.4 µM [inhibitor, partial curve]"}, {"smiles": "O=[N+]([O-])c1cc(C=NN2CCCCCC2)ccc1Cl", "Potency": "inconclusive: 20.6 µM [inhibitor, single point]"}, {"smiles": "COc1ccc(C(=O)N2CCc3cc(OC)c(OC)cc3C2)cc1OC", "Potency": "inconclusive: 16.4 µM [inhibitor, single point]"}, {"smiles": "COc1cc(C(=O)OCC(=O)N(C)C)cc(NC(=O)c2ccco2)c1OC", "Potency": "inconclusive: 23.1 µM [inhibitor, single point]"}, {"smiles": "O=C(CSc1ncnc2sc3c(c12)CCCC3)c1ccco1", "Potency": "inconclusive: 29.1 µM [inhibitor, single point]"}, {"smiles": "Cc1ccc(-c2nn(-c3ccccc3)cc2/C=N/NC(=O)c2ccncc2)o1", "Potency": "active: 23.1 µM"}, {"smiles": "COc1ccc(-c2noc(CN(C(=O)c3ccoc3C)C(C)C)n2)cc1", "Potency": "inconclusive: 20.6 µM [inhibitor, partial curve]"}, {"smiles": "O=C(Cc1cccc(NC(=O)C2CCCN(C(=O)C3CC3)C2)c1)Nc1ccc(C(=O)N2CCCCC2)cc1", "note": "(stereo not given)", "Potency": "inconclusive: 5.8 µM [inhibitor, partial curve, poor fit]"}, {"smiles": "CCCCN1CCN=C1Nc1ccccc1", "activity change, negative = growth inhibition": "inactive: 0.605%"}, {"smiles": "Cc1c(C(=O)O)oc2ccc(S(=O)(=O)NCc3ccccc3)cc12", "activity change, negative = growth inhibition": "inactive: -8.55%"}, {"smiles": "CC1CCN(S(=O)(=O)c2cc(C(=O)NCc3ccc(F)cc3)n(C)c2)CC1", "Potency": "inconclusive: 29.1 µM [inhibitor, single point]"}, {"smiles": "COc1cccc(COC(=O)c2ccc(-c3nnn(Cc4ccccc4)n3)cc2)c1", "activity change, negative = growth inhibition": "inactive: -13.7%"}, {"smiles": "CCOC(=O)c1ccc(N2C(=O)c3n[nH]c(C)c3C2c2ccc(OC)cc2)cc1", "note": "(stereo not given)", "Potency": "inconclusive: 18.4 µM [inhibitor, single point]"}, {"smiles": "COCCOC(=O)C(C#N)c1nc2ccccc2nc1N1CCN(Cc2ccccc2)CC1", "note": "(stereo not given)", "Potency": "active: 16.4 µM"}, {"smiles": "CCOc1ccccc1NC(=O)CSc1nnnn1-c1ccccc1", "Potency": "inconclusive: 18.4 µM [inhibitor, single point]"}, {"smiles": "CC(NC(=O)c1ccco1)c1nnc2n1CCN(Cc1ccc(N3CCCC3)cc1)CC2", "note": "(stereo not given)", "activity change, negative = growth inhibition": "inactive: -17.9%"}]}]}
